Reference: the supplement of paper PMC8007513
Counter-ions that a name gives are not always drawn. ± gives the standard error. The campaign covered roughly 1,300 compounds. About 130 (10%) showed an effect of 50% or more. Only a part is listed here, and it is no random draw.

Test system: Trichoderma virens ATCC 9645
Assay: growth yield (OD600) with compound + IPBC relative to untreated control; higher = less growth inhibition
Conditions: compound concentration: 100 uM, IPBC concentration: 200 ng/ml
Method in brief: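 Growth appears as means of duplicate screens, relative to the control containing neither agent. To obtain it, OD600 was read on a BioTek EL800 at 40 h and 72 h. The cultures were 100 μl aliquots in 96-well plates at 30 °C, holding Trichoderma virens ATCC 9645 spores at 15,000 spores ml^−1 in potato dextrose broth, library compounds at 100 μM final, and, in some wells, a biocide at 200 ng ml^−1.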

Row | SMILES | growth yield (40 h) [%] | growth yield (72 h) [%]
1 | CNC1(C)C2CCC(C2)C1(C)C (stereo not drawn) [Mecamylamine hydrochloride] + CCCCNC(=O)OCC#CI [3-iodo-2-propynyl butylcarbamate (IPBC)] | 102.1 ± 0.79 | 99.11 ± 0.1
2 | CCC(C)(C)c1ccc(CC(C)CN2C[C@@H](C)O[C@@H](C)C2)cc1 (stereo partly drawn) [Amorolfine hydrochloride] + CCCCNC(=O)OCC#CI [3-iodo-2-propynyl butylcarbamate (IPBC)] | 3.97 ± 0.16 | 2.94 ± 0.21
3 | Oc1ccc2c3c1O[C@H]1[C@@H](O)CC[C@@]4(O)[C@@H](C2)N(CC2CCC2)CC[C@]314 [Nalbuphine hydrochloride] + CCCCNC(=O)OCC#CI [3-iodo-2-propynyl butylcarbamate (IPBC)] | 88 ± 5.1 | 93.2 ± 3.5
4 | Nc1ccc(S(N)(=O)=O)cc1 [Sulfanilamide] + CCCCNC(=O)OCC#CI [3-iodo-2-propynyl butylcarbamate (IPBC)] | 104 ± 9.4 | 104 ± 8.8
5 | CC(CCc1ccc(O)cc1)NCCc1ccc(O)c(O)c1 (stereo not drawn) [Dobutamine hydrochloride] + CCCCNC(=O)OCC#CI [3-iodo-2-propynyl butylcarbamate (IPBC)] | 101 ± 4.9 | 98.4 ± 4.4
6 | CNCC[C@@H](Oc1cccc2ccccc12)c1cccs1 [(R)-Duloxetine hydrochloride] + CCCCNC(=O)OCC#CI [3-iodo-2-propynyl butylcarbamate (IPBC)] | 61.6 ± 3.8 | 90.3 ± 0.1
7 | O=C(NCC1CCCCN1)c1cc(OCC(F)(F)F)ccc1OCC(F)(F)F (stereo not drawn) [Flecainide acetate] + CCCCNC(=O)OCC#CI [3-iodo-2-propynyl butylcarbamate (IPBC)] | 94.7 ± 4.8 | 99.3 ± 2
8 | CC(C)[C@H]1CC[C@H](C(=O)N[C@H](Cc2ccccc2)C(=O)O)CC1 [Nateglinide] + CCCCNC(=O)OCC#CI [3-iodo-2-propynyl butylcarbamate (IPBC)] | 83.5 ± 2.5 | 90.7 ± 1.1
9 | COc1ccccc1OCCNCC(O)COc1cccc2[nH]c3ccccc3c12 (stereo not drawn) [Carvedilol] + CCCCNC(=O)OCC#CI [3-iodo-2-propynyl butylcarbamate (IPBC)] | 87.05 ± 0.64 | 123 ± 5.9
10 | CC(C)c1nc(CN(C)C(=O)N[C@H](C(=O)N[C@@H](Cc2ccccc2)C[C@H](O)[C@H](Cc2ccccc2)NC(=O)OCc2cncs2)C(C)C)cs1 [Ritonavir] + CCCCNC(=O)OCC#CI [3-iodo-2-propynyl butylcarbamate (IPBC)] | 119 ± 1.6 | 119 ± 1.5
11 | COc1cc(N)c(Cl)cc1C(=O)NC1CCN(Cc2ccccc2)CC1 [Clebopride maleate] + CCCCNC(=O)OCC#CI [3-iodo-2-propynyl butylcarbamate (IPBC)] | 82.8 ± 6.2 | 93.3 ± 6.3
12 | CCN1CCCC1CNC(=O)c1cc(S(=O)(=O)CC)c(N)cc1OC (stereo not drawn) [Amisulpride] + CCCCNC(=O)OCC#CI [3-iodo-2-propynyl butylcarbamate (IPBC)] | 78.8 ± 2.2 | 84.3 ± 1.5
13 | Nc1nc(N)nc(-c2cc(Cl)ccc2Cl)n1 [Irsogladine maleate] + CCCCNC(=O)OCC#CI [3-iodo-2-propynyl butylcarbamate (IPBC)] | 88.8 ± 2.1 | 89.6 ± 1.1
14 | CC(CN1c2ccccc2Sc2ccccc21)N(C)C (stereo not drawn) [Promethazine hydrochloride] + CCCCNC(=O)OCC#CI [3-iodo-2-propynyl butylcarbamate (IPBC)] | 78.2 ± 1.9 | 94.3 ± 4.1
15 | NS(=O)(=O)c1cc2c(cc1C(F)(F)F)NC(Cc1ccccc1)NS2(=O)=O (stereo not drawn) [Bendroflumethiazide] + CCCCNC(=O)OCC#CI [3-iodo-2-propynyl butylcarbamate (IPBC)] | 99.1 ± 11 | 101 ± 11
16 | O=C(c1ccc(OCCN2CCCCC2)cc1)c1c(-c2ccc(O)cc2)sc2cc(O)ccc12 [Raloxifene hydrochloride] + CCCCNC(=O)OCC#CI [3-iodo-2-propynyl butylcarbamate (IPBC)] | 64.2 | 116 ± 18
17 | COc1cc2c(c(OC)c1OC)-c1ccc(OC)c(=O)cc1[C@@H](NC(C)=O)CC2 [Colchicine] + CCCCNC(=O)OCC#CI [3-iodo-2-propynyl butylcarbamate (IPBC)] | 88.5 ± 6.8 | 92.9 ± 1.7
18 | CCn1cc(C(=O)O)c(=O)c2cc(F)c(N3CCNCC3)cc21 [Norfloxacin] + CCCCNC(=O)OCC#CI [3-iodo-2-propynyl butylcarbamate (IPBC)] | 96.3 ± 3.5 | 96.7 ± 1.7
19 | COC1=CC(=O)C[C@@H](C)[C@]12Oc1c(Cl)c(OC)cc(OC)c1C2=O [Griseofulvin] + CCCCNC(=O)OCC#CI [3-iodo-2-propynyl butylcarbamate (IPBC)] | 48.8 ± 3.6 | –
20 | COc1cc(N)c(Cl)cc1C(=O)NC1CCN(CCCOc2ccc(F)cc2)CC1OC (stereo not drawn) [Cisapride] + CCCCNC(=O)OCC#CI [3-iodo-2-propynyl butylcarbamate (IPBC)] | 76.24 ± 0.32 | 92.7 ± 1.7

Row | SMILES | growth yield (40 h) [%] | growth yield (72 h) [%]
21 | CN(C)CCC(c1ccc(Cl)cc1)c1ccccn1 (stereo not drawn) [Chlorpheniramine maleate] + CCCCNC(=O)OCC#CI [3-iodo-2-propynyl butylcarbamate (IPBC)] | 80.4 ± 1.6 | 90.7 ± 3.5
22 | c1ccc2c(c1)OCC(C1=NCCN1)O2 (stereo not drawn) [Idazoxan hydrochloride] + CCCCNC(=O)OCC#CI [3-iodo-2-propynyl butylcarbamate (IPBC)] | 88.633 ± 1e-14 | 94.8 ± 2.5
23 | CCCC(CCC)C(=O)O [Valproic acid] + CCCCNC(=O)OCC#CI [3-iodo-2-propynyl butylcarbamate (IPBC)] | 84.3 ± 3.6 | 93.7 ± 1.6
24 | CN(C)CCCC1(c2ccc(F)cc2)OCc2cc(C#N)ccc21 (stereo not drawn) [Citalopram Hydrobromide] + CCCCNC(=O)OCC#CI [3-iodo-2-propynyl butylcarbamate (IPBC)] | 84.2 ± 7.6 | 92.3 ± 5.9
25 | CCCCCC[C@H]1C(=O)O[C@H](C)[C@H](NC(=O)c2cccc(NC=O)c2O)C(=O)O[C@@H](C)[C@@H]1OC(=O)CC(C)C [Antimycin A] + CCCCNC(=O)OCC#CI [3-iodo-2-propynyl butylcarbamate (IPBC)] | 17.6 ± 1.1 | 42.9 ± 2.4
26 | Cc1onc(-c2ccccc2)c1C(=O)N[C@@H]1C(=O)N2[C@@H]1SC(C)(C)[C@@H]2C(=O)O [Oxacillin sodium] + CCCCNC(=O)OCC#CI [3-iodo-2-propynyl butylcarbamate (IPBC)] | 109 ± 1.6 | 107 ± 2.1
27 | Cn1c(=O)c2c(ncn2C)n(C)c1=O [Caffeine] + CCCCNC(=O)OCC#CI [3-iodo-2-propynyl butylcarbamate (IPBC)] | 93.1 ± 10 | 92.9 ± 5.7
28 | CC[N+]1(C)CCCC(OC(=O)C(O)(c2ccccc2)c2ccccc2)C1 (stereo not drawn) [Pipenzolate bromide] + CCCCNC(=O)OCC#CI [3-iodo-2-propynyl butylcarbamate (IPBC)] | 98.8 ± 7.6 | 94.9 ± 5.3
29 | CC(C)(C)NCC(O)c1ccc(O)c(CO)c1 (stereo not drawn) [Salbutamol] + CCCCNC(=O)OCC#CI [3-iodo-2-propynyl butylcarbamate (IPBC)] | 85.93 ± 0.16 | 93 ± 0.94
30 | O=C(O[C@@H]1C[C@@H]2C[C@H]3C[C@H](C1)N2CC3=O)c1c[nH]c2ccccc12 [Dolasetron mesilate] + CCCCNC(=O)OCC#CI [3-iodo-2-propynyl butylcarbamate (IPBC)] | 80.06 ± 0.64 | 95.6 ± 2.3
31 | COC(=O)Nc1nc2cc(C(=O)c3ccc(F)cc3)ccc2[nH]1 [Flubendazol] + CCCCNC(=O)OCC#CI [3-iodo-2-propynyl butylcarbamate (IPBC)] | 86.4 ± 5.4 | 91.1 ± 4.9
32 | C[C@]12CCC(=O)C=C1C=C[C@@H]1[C@@H]2CC[C@@]2(C)[C@H]1CC[C@@]21CCC(=O)O1 [Canrenone] + CCCCNC(=O)OCC#CI [3-iodo-2-propynyl butylcarbamate (IPBC)] | 54.6 ± 2.9 | 83.5 ± 1.5
33 | NC(=O)OCC(O)COc1ccc(Cl)cc1 (stereo not drawn) [Chlorphensin carbamate] + CCCCNC(=O)OCC#CI [3-iodo-2-propynyl butylcarbamate (IPBC)] | 92.3 ± 1.4 | 100 ± 2.5
34 | COC(=O)CCc1ccc(OCC(O)CNC(C)C)cc1 (stereo not drawn) [Esmolol hydrochloride] + CCCCNC(=O)OCC#CI [3-iodo-2-propynyl butylcarbamate (IPBC)] | 91.8 ± 4.8 | 93.9 ± 3
35 | CN1C(C(=O)Nc2ccccn2)=C(O)c2ccccc2S1(=O)=O [Piroxicam] + CCCCNC(=O)OCC#CI [3-iodo-2-propynyl butylcarbamate (IPBC)] | 82.3 ± 1.3 | 99.4 ± 4.4
36 | COCCOC(=O)C1=C(C)NC(C)=C(C(=O)OC(C)C)C1c1cccc([N+](=O)[O-])c1 (stereo not drawn) [Nimodipine] + CCCCNC(=O)OCC#CI [3-iodo-2-propynyl butylcarbamate (IPBC)] | 79.7 ± 7.9 | 87.3 ± 1.3
37 | CNCCC=C1c2ccccc2C=Cc2ccccc21 [Norcyclobenzaprine] + CCCCNC(=O)OCC#CI [3-iodo-2-propynyl butylcarbamate (IPBC)] | 65.28 ± 0.48 | 86.3 ± 1.6
38 | Cc1ccc(C)c(OCCCC(C)(C)C(=O)O)c1 [Gemfibrozil] + CCCCNC(=O)OCC#CI [3-iodo-2-propynyl butylcarbamate (IPBC)] | 66.4 ± 1.3 | 90 ± 1.3
39 | O=C(O)C[C@H](O)C[C@H](O)/C=C/c1c(C2CC2)nc2ccccc2c1-c1ccc(F)cc1 [Pitavastatin calcium] + CCCCNC(=O)OCC#CI [3-iodo-2-propynyl butylcarbamate (IPBC)] | 14 ± 2.2 | 39.4 ± 3.4
40 | O=C(CCCN1CCC(O)(c2ccc(Cl)cc2)CC1)c1ccc(F)cc1 [Haloperidol] + CCCCNC(=O)OCC#CI [3-iodo-2-propynyl butylcarbamate (IPBC)] | 10.2 ± 1.9 | –
